# Molecular target: Recombinant heterodimeric HCV NS3/NS4A protease (strain 1a) (Hepatitis C virus genotype 1a, UniProt P27958)
# Experiment: Spectrophotometric assay for HCV protease inhibitory activity (chromogenic ester substrates)
# Type: biochemical
# Settings: Table 1, Ki* range class
# Text: The present invention relates to novel HCV protease inhibitors. This utility can be manifested in their ability to inhibit the HCV NS2/NS4a serine protease.
# Assay for HCV Protease Inhibitory Activity:
# Spectrophotometric Assay: Spectrophotometric assay for the HCV serine protease can be performed on the inventive compounds by following the procedure described by R. Zhang et al, Analytical Biochemistry, 270 (1999) 268-275, the disclosure of which is incorporated herein by reference. The assay based on the proteolysis of chromogenic ester substrates is suitable for the continuous monitoring of HCV NS3 protease activity. The substrates are derived from the P side of the NS5A-NS5B junction sequence (Ac-DTEDVVX(Nva), where X=A or P) whose C-terminal carboxyl groups are esterified with one of four different chromophoric alcohols (3- or 4-nitrophenol, 7-hydroxy-4-methyl-coumarin, or 4-phenylazophenol). Illustrated below are the synthesis, characterization and application of these novel spectrophotometric ester substrates to high throughput screening and detailed kinetic evaluation of HCV NS3 protease inhibitors.
# Protein concentrations are determined by the Biorad dye method using recombinant HCV protease standards previously quantified by amino acid analysis. Prior to assay initiation, the enzyme storage buffer (50 mM sodium phosphate pH 8.0, 300 mM NaCl, 10% glycerol, 0.05% lauryl maltoside and 10 mM DTT) is exchanged for the assay buffer (25 mM MOPS pH 6.5, 300 mM NaCl, 10% glycerol, 0.05% lauryl maltoside, 5 μM EDTA and 5 μM DTT) utilizing a Biorad Bio-Spin P-6 prepacked column.
# Protease Assay: HCV protease assays are performed at 30° C. using a 200 μl reaction mix in a 96-well microtiter plate. Assay buffer conditions (25 mM MOPS pH 6.5, 300 mM NaCl, 10% glycerol, 0.05% lauryl maltoside, 5 μM EDTA and 5 μM DTT) are optimized for the NS3/NS4A heterodimer (D. L. Sali et al, ibid.)). Typically, 150 μl mixtures of buffer, substrate and inhibitor are placed in wells (final concentration of DMSO≦4% v/v) and allowed to preincubate at 30° C. for approximately 3 minutes. Fifty μls of prewarmed protease (12 nM, 30° C.) in assay buffer, is then used to initiate the reaction (final volume 200 μl).The plates are monitored over the length of the assay (60 minutes) for change in absorbance at the appropriate wavelength (340 nm for 3-Np and HMC, 370 nm for PAP, and 400 nm for 4-Np) using a Spectromax Plus microtiter plate reader equipped with a monochrometer (acceptable results can be obtained with plate readers that utilize cutoff filters). Proteolytic cleavage of the ester linkage between the Nva and the chromophore is monitored at the appropriate wavelength against a no enzyme blank as a control for non-enzymatic hydrolysis. The evaluation of substrate kinetic parameters is performed over a 30-fold substrate concentration range (˜6-200 μM). Initial velocities are determined using linear regression and kinetic constants are obtained by fitting the data to the Michaelis-Menten equation using non-linear regression analysis (Mac Curve Fit 1.1, K. Raner). Turnover numbers (kcat) are calculated assuming the enzyme is fully active.
# Evaluation of Inhibitors and Inactivators: The inhibition constants (Ki) for the competitive inhibitors Ac-D-(D-Gla)-L-I-(Cha)-C—OH (27), Ac-DTEDVVA(Nva)-OH and Ac-DTEDVVP(Nva)-OH are determined experimentally at fixed concentrations of enzyme and substrate by plotting vo/vi vs. inhibitor concentration ([I]o) according to the rearranged Michaelis-Menten equation for competitive inhibition kinetics: vo/vi=1+[I]o/(Ki(1+[S]o/Km)), where vo is the uninhibited initial velocity, vi is the initial velocity in the presence of inhibitor at any given inhibitor concentration ([I]o) and [S]o is the substrate concentration used.
row,Structure (SMILES),Ki [nM]
1,CCCCC(NC(=O)[C@@H]1[C@@H]2[C@H](CN1C(=O)[C@@H](NC(=O)N[C@H](COC(=O)NC(C)C)C(C)(C)C)C1Cc3ccccc3C1)C2(C)C)C(=O)C(=O)NCCOC (stereo partly shown) [Example 1069],75 to 250
2,C#CCNC(=O)C(=O)C(CCCC)NC(=O)[C@@H]1[C@@H]2[C@H](CN1C(=O)[C@@H](NC(=O)N[C@H](COC(=O)NC(C)C)C(C)(C)C)C1Cc3ccccc3C1)C2(C)C (stereo partly shown) [Example 1070],< 75
3,CCCCC(NC(=O)[C@@H]1[C@@H]2[C@H](CN1C(=O)[C@@H](NC(=O)N[C@H](COC(=O)NCC)C(C)(C)C)C1Cc3ccccc3C1)C2(C)C)C(=O)C(=O)NCC (stereo partly shown) [Example 1071],< 75
4,CCCCC(NC(=O)[C@@H]1[C@@H]2[C@H](CN1C(=O)[C@@H](NC(=O)N[C@H](COC(=O)NC(C)C)C(C)(C)C)C1Cc3ccccc3C1)C2(C)C)C(=O)C(=O)NC (stereo partly shown) [Example 1072],< 75
5,C#CCCC(NC(=O)[C@@H]1[C@@H]2[C@H](CN1C(=O)[C@@H](NC(=O)N[C@H](COC(=O)NCC)C(C)(C)C)C1Cc3ccccc3C1)C2(C)C)C(=O)C(=O)NCC=C (stereo partly shown) [Example 1073],< 75
6,CCCCC(NC(=O)[C@@H]1[C@@H]2[C@H](CN1C(=O)[C@@H](NC(=O)N[C@H](COC(=O)NC(C)C)C(C)(C)C)C1Cc3ccccc3C1)C2(C)C)C(=O)C(=O)NCC (stereo partly shown) [Example 1074],75 to 250
7,C=CCNC(=O)C(=O)C(CCC)NC(=O)[C@@H]1[C@@H]2[C@H](CN1C(=O)[C@@H](NC(=O)N[C@H](COC(=O)NCC)C(C)(C)C)C(C)(C)C)C2(C)C (stereo partly shown) [Example 1075],< 75
8,CCNC(=O)OC[C@@H](NC(=O)N[C@H](C(=O)N1C[C@H]2[C@@H]([C@H]1C(=O)NC(CC1CCC1)C(=O)C(N)=O)C2(C)C)C(C)(C)C)C(C)(C)C (stereo partly shown) [Example 1076],< 75
9,C=CCNC(=O)C(=O)C(CC1CC1)NC(=O)[C@@H]1[C@@H]2[C@H](CN1C(=O)[C@@H](NC(=O)N[C@H](COC(=O)NC(C)C)C(C)(C)C)C1CCCC1)C2(C)C (stereo partly shown) [Example 1077],< 75
10,CCNC(=O)OC[C@@H](NC(=O)N[C@H](C(=O)N1C[C@H]2[C@@H]([C@H]1C(=O)NC(CC1CC1)C(=O)C(=O)NC)C2(C)C)C1Cc2ccccc2C1)C(C)(C)C (stereo partly shown) [Example 1078],75 to 250
11,C#CCCC(NC(=O)[C@@H]1[C@@H]2[C@H](CN1C(=O)[C@@H](NC(=O)N[C@H](COC(=O)NCC)C(C)(C)C)C1Cc3ccccc3C1)C2(C)C)C(=O)C(=O)NCCC (stereo partly shown) [Example 1079],< 75
12,CCCC(NC(=O)[C@@H]1[C@@H]2[C@H](CN1C(=O)[C@@H](NC(=O)N[C@H](COC(=O)NCC)C(C)(C)C)C1Cc3ccccc3C1)C2(C)C)C(=O)C(N)=O (stereo partly shown) [Example 1080],< 75
13,CCNC(=O)OC[C@@H](NC(=O)N[C@H](C(=O)N1C[C@H]2[C@@H]([C@H]1C(=O)NC(CC1CCC1)C(=O)C(N)=O)C2(C)C)C1CCCCC1)C(C)(C)C (stereo partly shown) [Example 1081],< 75
14,CCNC(=O)OC[C@@H](NC(=O)N[C@H](C(=O)N1C[C@H]2[C@@H]([C@H]1C(=O)NC(CC1CC1)C(=O)C(N)=O)C2(C)C)C1CCCCC1)C(C)(C)C (stereo partly shown) [Example 1082],< 75
15,C=CCNC(=O)C(=O)C(CCC(F)(F)F)NC(=O)[C@@H]1[C@@H]2[C@H](CN1C(=O)[C@@H](NC(=O)N[C@H](COC(=O)NCC)C(C)(C)C)C1CCCCC1)C2(C)C (stereo partly shown) [Example 1083],< 75
16,C=CCNC(=O)C(=O)C(CC1CC1)NC(=O)[C@@H]1[C@@H]2[C@H](CN1C(=O)[C@@H](NC(=O)N[C@H](COC(=O)NCC)C(C)(C)C)C1CCCCC1)C2(C)C (stereo partly shown) [Example 1084],< 75

row,Structure (SMILES),Ki [nM]
1,C=CCNC(=O)C(=O)C(CCCC)NC(=O)[C@@H]1[C@@H]2[C@H](CN1C(=O)[C@@H](NC(=O)N[C@H](COC(=O)NCC)C(C)(C)C)C1CCCCC1)C2(C)C (stereo partly shown) [Example 1085],< 75
2,C#CCCC(NC(=O)[C@@H]1[C@@H]2[C@H](CN1C(=O)[C@@H](NC(=O)N[C@H](COC(=O)NCC)C(C)(C)C)C1CCCCC1)C2(C)C)C(=O)C(=O)NCC=C (stereo partly shown) [Example 1086],< 75
3,C=CCNC(=O)C(=O)C(CC1CC1)NC(=O)[C@@H]1[C@@H]2[C@H](CN1C(=O)[C@@H](NC(=O)N[C@H](COC(=O)NC(C)C)C(C)(C)C)C1CCCC1)C2(C)C (stereo partly shown) [Example 1087],< 75
4,CCNC(=O)OC[C@@H](NC(=O)N[C@H](C(=O)N1C[C@H]2[C@@H]([C@H]1C(=O)NC(CC1CC1)C(=O)C(N)=O)C2(C)C)C1(C)CCCCC1)C(C)(C)C (stereo partly shown) [Example 1088],< 75
5,C=CCNC(=O)C(=O)C(CCCC)NC(=O)[C@@H]1[C@@H]2[C@H](CN1C(=O)[C@@H](NC(=O)N[C@H](COC(=O)NCC)C(C)(C)C)C1(C)CCCCC1)C2(C)C (stereo partly shown) [Example 1089],< 75
6,C#CCCC(NC(=O)[C@@H]1[C@@H]2[C@H](CN1C(=O)[C@@H](NC(=O)N[C@H](COC(=O)NCC)C(C)(C)C)C1(C)CCCCC1)C2(C)C)C(=O)C(=O)NCC=C (stereo partly shown) [Example 1090],< 75
7,C#CCCC(NC(=O)[C@@H]1[C@@H]2[C@H](CN1C(=O)[C@@H](NC(=O)N[C@H](COC(=O)NCC)C(C)(C)C)C1(C)CCCCC1)C2(C)C)C(=O)C(=O)NCC (stereo partly shown) [Example 1091],< 75
8,C=CCNC(=O)C(=O)C(CCC)NC(=O)[C@@H]1[C@@H]2[C@H](CN1C(=O)[C@@H](NC(=O)N[C@H](COC(=O)NCC)C(C)(C)C)C1(C)CCCCC1)C2(C)C (stereo partly shown) [Example 1092],< 75
9,C#CCCC(NC(=O)[C@@H]1[C@@H]2[C@H](CN1C(=O)[C@@H](NC(=O)N[C@H](COC(=O)NCC)C(C)(C)C)C1(C)CCCCC1)C2(C)C)C(=O)C(=O)NCCC (stereo partly shown) [Example 1093],< 75
10,CCCC(NC(=O)[C@@H]1[C@@H]2[C@H](CN1C(=O)[C@@H](NC(=O)N[C@H](COC(=O)NCC)C(C)(C)C)C1(C)CCCCC1)C2(C)C)C(=O)C(=O)NC1CC1 (stereo partly shown) [Example 1094],< 75
11,C#CCCC(NC(=O)[C@@H]1[C@@H]2[C@H](CN1C(=O)[C@@H](NC(=O)N[C@H](COC(=O)NC(C)C)C(C)(C)C)C1(C)CCCCC1)C2(C)C)C(=O)C(=O)NCC=C (stereo partly shown) [Example 1095],< 75
12,C=CCNC(=O)C(=O)C(CCCC)NC(=O)[C@@H]1[C@@H]2[C@H](CN1C(=O)[C@@H](NC(=O)N[C@H](COC(=O)NC(C)C)C(C)(C)C)C1(C)CCCCC1)C2(C)C (stereo partly shown) [Example 1096],< 75
13,C=CCNC(=O)C(=O)C(CCC)NC(=O)[C@@H]1[C@@H]2[C@H](CN1C(=O)[C@@H](NC(=O)N[C@H](COC(=O)NC(C)C)C(C)(C)C)C1(C)CCCCC1)C2(C)C (stereo partly shown) [Example 1097],< 75
14,C#CCCC(NC(=O)[C@@H]1[C@@H]2[C@H](CN1C(=O)[C@@H](NC(=O)N[C@H](COC(=O)NC(C)C)C(C)(C)C)C1(C)CCCCC1)C2(C)C)C(=O)C(=O)NCCC (stereo partly shown) [Example 1098],< 75
15,C=CCNC(=O)C(=O)C(CCCC)NC(=O)[C@@H]1[C@@H]2[C@H](CN1C(=O)[C@@H](NC(=O)N[C@H](COC(=O)NCC)C1CCCCC1)C1CCCCC1)C2(C)C (stereo partly shown) [Example 1099],< 75
16,C=CCNC(=O)C(=O)C(CCC)NC(=O)[C@@H]1[C@@H]2[C@H](CN1C(=O)[C@@H](NC(=O)N[C@H](COC(=O)NCC)C1CCCCC1)C1CCCCC1)C2(C)C (stereo partly shown) [Example 1100],< 75

# Same assay, conditions: Table 6, numeric Ki*
row,Structure (SMILES),Ki [nM]
1,C=CCNC(=O)C(=O)C(CCCC)NC(=O)[C@@H]1[C@@H]2[C@H](CN1C(=O)[C@@H](NC(=O)N[C@H](COC(=O)NCC)C(C)(C)C)C1CCCCC1)C2(C)C (stereo partly shown) [Example 1085],11
2,C#CCCC(NC(=O)[C@@H]1[C@@H]2[C@H](CN1C(=O)[C@@H](NC(=O)N[C@H](COC(=O)NCC)C(C)(C)C)C1CCCCC1)C2(C)C)C(=O)C(=O)NCC=C (stereo partly shown) [Example 1086],8
3,C#CCCC(NC(=O)[C@@H]1[C@@H]2[C@H](CN1C(=O)[C@@H](NC(=O)N[C@H](COC(=O)NCC)C(C)(C)C)C1(C)CCCCC1)C2(C)C)C(=O)C(=O)NCC=C (stereo partly shown) [Example 1090],9
4,C#CCCC(NC(=O)[C@@H]1[C@@H]2[C@H](CN1C(=O)[C@@H](NC(=O)N[C@H](COC(=O)NC(C)C)C(C)(C)C)C1(C)CCCCC1)C2(C)C)C(=O)C(=O)NCC=C (stereo partly shown) [Example 1095],8
5,C#CCCC(NC(=O)[C@@H]1[C@@H]2[C@H](CN1C(=O)[C@@H](NC(=O)N[C@H](COC(=O)NC(C)C)C(C)(C)C)C1(C)CCCCC1)C2(C)C)C(=O)C(=O)NCCC (stereo partly shown) [Example 1098],15
